# Results published in the supplement of paper PMC5919970.
# Structures can show the parent of a compound that is named as a salt. Over roughly 2,000 compounds, “fractional viability relative to vehicle” has its median near 0.91; the lowest 2% begin near 0.045. This is one part of the list.
# System: TYKNU
# Test: fractional viability relative to vehicle; TYKNU is a high-grade serous ovarian cancer line; higher = less growth inhibition
# Conditions: 72 h
# Method in brief: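 TYKNU control cells or lentiCRISPRv2 knockout derivatives were plated at 500 cells per well in duplicate into drug-stamped 384-well plates holding a ~2100-compound library at 2 or 10 μM. Culture was in RPMI 1640 with 10% FBS at 37 °C in 5% CO2, with 72 h of drug treatment. Viability was measured by Cell Titer Glo luminescence, and the averaged duplicate treatment wells were normalised to duplicate control wells at the same plate position.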
# [1] = 2uM, genotype: DNM1L knockout (sgDNM1L #1)
# [2] = 2uM, genotype: sgCTRLA1 (non-targeting control)
# [3] = 10uM, genotype: DNM1L knockout (sgDNM1L #1)
# [4] = 10uM, genotype: sgCTRLA1 (non-targeting control)
Compound,fractional viability [1],fractional viability [2],fractional viability [3],fractional viability [4]
C[C@H]1O[C@@H](O[C@H]2[C@@H](O)C[C@H](O[C@H]3[C@@H](O)C[C@H](O[C@H]4CC[C@@]5(C)[C@H](CC[C@@H]6[C@@H]5C[C@@H](O)[C@]5(C)[C@@H](C7=CC(=O)OC7)CC[C@]65O)C4)O[C@@H]3C)O[C@@H]2C)C[C@H](O)[C@@H]1O [Digoxin],0.0546,0.0452,0.032,0.0309
C=CCc1cccc(/C=N/NC(=O)CN2CCN(Cc3ccccc3)CC2)c1O,0.604,0.671,0.277,0.27
CC(NC(=O)C(Cc1ccccc1)NC(=O)OCc1ccccc1)C(=O)CF (stereo not given),0.85,0.869,0.793,0.606
CC(C(=O)O)c1ccc2c(c1)[nH]c1ccc(Cl)cc12 (stereo not given) [Carprofen],0.996,0.999,0.913,1.02
O=C(Nc1cccc(C(F)(F)F)c1)Nc1cc(S(=O)(=O)NC2CC2)ccc1-c1ccsc1,0.923,0.992,0.712,0.909
O=C1c2c(O)cccc2C([C@@H]2O[C@H](CO)[C@@H](O)[C@H](O)[C@H]2O)c2cc(CO)cc(O)c21 (stereo not given in full) [Aloin],0.838,1.09,0.828,1.06
Cc1ccccc1C(=O)Nc1ccc(C(=O)N2CCCC(O)c3cc(Cl)ccc32)c(C)c1 (stereo not given) [Tolvaptan],0.886,1.08,0.662,1.01
CN(C)C(=O)C(CCN1CCC(O)(c2ccc(Cl)cc2)CC1)(c1ccccc1)c1ccccc1 [Loperamide HCl],0.892,0.98,0.423,0.577
COc1ccc(/C=C/C(=O)Nc2ccccc2C(=O)O)cc1OC [Tranilast],1.07,1.13,1.12,1.28
CCN(CC)CCNC(=O)c1c(C)[nH]c(/C=C2\C(=O)Nc3ccc(F)cc32)c1C [Sunitinib Malate],0.853,0.819,0.169,0.122
CCN(CC)CCNC(=O)c1c(C)[nH]c(/C=C2\C(=O)Nc3ccc(F)cc32)c1C [Sunitinib],0.544,0.67,0.0734,0.0439
CCOC(=O)C1=C(COCCN)NC(C)=C(C(=O)OC)C1c1ccccc1Cl (stereo not given) [Amlodipine],0.946,1.08,0.516,0.843
Cc1ncc(CCCN(C)C)cc1Nc1ncc2c(n1)-c1ccc(C(F)(F)F)cc1NC(=S)C2,0.211,0.231,0.259,0.251
Oc1ccc(/C=C/c2cc(O)cc(O)c2)cc1 [Resveratrol],0.993,1.11,0.918,0.899
Cc1cc(/C=C/C#N)cc(C)c1Nc1ccnc(Nc2ccc(C#N)cc2)n1 [Rilpivirine],0.893,0.973,0.403,0.578
Cc1c(N(C)C)c(=O)n(-c2ccccc2)n1C [Amidopyrine],0.984,1.18,0.904,1.03
CCOc1cc2ncc(C#N)c(Nc3ccc(F)c(Cl)c3)c2cc1NC(=O)/C=C/CN(C)C [Pelitinib (EKB-569)],0.415,0.345,0.0507,0.0481
COc1ccccc1OCC(O)CO (stereo not given) [Guaifenesin],1.01,0.999,0.867,0.99
Nc1nc(CC(=O)Nc2ccc(CCNC[C@H](O)c3ccccc3)cc2)cs1 [Mirabegron],0.921,1.08,0.807,0.998
CC[C@]1(O)C[C@H]2CN(CCc3c([nH]c4ccccc34)[C@@](C(=O)OC)(c3cc4c(cc3OC)N(C=O)[C@H]3[C@@](O)(C(=O)OC)[C@H](OC(C)=O)[C@]5(CC)C=CCN6CC[C@]43[C@@H]65)C2)C1 [Vincristine sulfate],0.17,0.134,0.172,0.13
O=S(=O)(NCCSSCCNS(=O)(=O)c1cc(Cl)ccc1Cl)c1cc(Cl)ccc1Cl,0.891,0.899,0.197,0.43
CC(=O)[C@H]1CC[C@H]2[C@@H]3C=CC4=CC(=O)CC[C@@]4(C)[C@@H]3CC[C@]12C [Dydrogesterone],1.04,1.11,0.874,1.12
Cc1cc(=O)[nH]c(=S)[nH]1 [Methylthiouracil],1.02,1.21,1.04,1.16
CN1[C@@H]2CC[C@H]1C[C@@H](OC(=O)c1c[nH]c3ccccc13)C2 [Tropisetron],0.979,1.12,0.864,1.07
Cc1cccc(C)c1OCC(C)N (stereo not given) [Mexiletine HCl],0.847,1.03,0.772,0.859
CN1CCC[C@@H]1Cc1c[nH]c2ccc(CCS(=O)(=O)c3ccccc3)cc12 [Eletriptan HBr],0.991,1.01,0.788,1.02
COc1ccccc1Oc1c(NS(=O)(=O)c2ccc(C(C)(C)C)cc2)nc(-c2ncccn2)nc1OCCO [Bosentan],0.796,1.23,0.764,0.961
COc1ccccc1Oc1c(NS(=O)(=O)c2ccc(C(C)(C)C)cc2)nc(-c2ncccn2)nc1OCCO [Bosentan Hydrate],1.1,1.03,0.984,1.04

Compound,fractional viability [1],fractional viability [2],fractional viability [3],fractional viability [4]
C[S+]([O-])c1ccc(-c2nc(-c3ccc(F)cc3)c(-c3ccncc3)[nH]2)cc1 (stereo not given),1.03,1,1.03,0.943
COc1cc2c(Oc3ccc(NC(=O)C4(C(=O)Nc5ccc(F)cc5)CC4)cc3F)ccnc2cc1OCCCN1CCOCC1,0.628,0.631,0.0524,0.0418
CCOc1ccc2ccccc2c1C(=O)N[C@@H]1C(=O)N2[C@@H]1SC(C)(C)[C@@H]2C(=O)O [Nafcillin Sodium],1.07,1.07,0.876,1.01
CCN(CC)CCNC(=O)c1cc(Cl)c(N)cc1OC [MetoclopraMide HCl],0.753,1.2,0.749,1.16
CC1=NN(c2ccccc2)C(=O)C1 [Edaravone],1.14,1.02,1.15,0.897
O=C(N[C@H](CO)[C@H](O)c1ccc([N+](=O)[O-])cc1)C(Cl)Cl [Chloramphenicol],0.951,0.965,0.877,0.875
O=C(O)CCNC(=O)c1ccccc1 [Betamipron],0.922,1.11,0.923,0.986
CCC[C@@H]1C[C@@H](C(=O)N[C@@H]([C@H]2O[C@H](SC)[C@H](O)[C@@H](O)[C@H]2O)[C@H](C)Cl)N(C)C1 [Clindamycin],1.03,1.13,1.01,1.06
CCC[C@@H]1C[C@@H](C(=O)N[C@@H]([C@H]2O[C@H](SC)[C@H](O)[C@@H](O)[C@H]2O)[C@H](C)Cl)N(C)C1 [Clindamycin HCl],0.974,1.06,1.04,1.16
CO[C@H]1/C=C\C=C(/C)C(=O)NC2=CC(=O)C(NCCN(C)C)=C(C[C@@H](C)C[C@H](OC)[C@H](O)[C@@H](C)/C=C(\C)[C@@H]1OC(N)=O)C2=O [17-DMAG (Alvespimycin) HCl],0.435,0.239,0.307,0.173
C=C1/C(=C\C=C2/CCC[C@]3(C)[C@@H]([C@H](C)CCCC(C)C)CC[C@@H]23)C[C@@H](O)C[C@@H]1O [Alfacalcidol],0.929,0.97,0.539,0.844
CCN(CC)CCOC(=O)c1ccc(N)cc1Cl [Chloroprocaine HCl],0.794,1.15,0.728,1.05
Cc1c(-c2ccccc2)oc2c(C(=O)OCCN3CCCCC3)cccc2c1=O [Flavoxate HCl],1.01,1.21,0.835,1.03
COc1ccc(O)cc1 [Mequinol],1.03,1.19,1.07,1.09
CCCCCCOC(=O)NC(=N)c1ccc(NCc2nc3cc(C(=O)N(CCC(=O)OCC)c4ccccn4)ccc3n2C)cc1 [Dabigatran Etexilate],0.894,0.873,0.474,0.585
CN[C@@H]1[C@H](O)[C@H](NC)[C@H]2O[C@@]3(O)C(=O)C[C@@H](C)O[C@H]3O[C@@H]2[C@H]1O [Spectinomycin HCl],1.11,1.03,1.25,1.12
NS(=O)(=O)c1cc2c(cc1Cl)NC(C(Cl)Cl)NS2(=O)=O (stereo not given) [Trichlormethiazide],0.959,0.967,0.866,0.974
NC(=O)c1cnc(N[C@@H]2CCCC[C@@H]2N)nc1Nc1cccc(-n2nccn2)c1,0.751,0.853,0.185,0.142
C#Cc1cccc(Nc2ncnc3cc(OCCOC)c(OCCOC)cc23)c1 [Erlotinib HCl (OSI-744)],1.08,0.997,0.619,0.575
C#Cc1cccc(Nc2ncnc3cc(OCCOC)c(OCCOC)cc23)c1 [Erlotinib],0.806,1.05,0.573,0.399
COc1ccc(Cn2ccc3ccc(C(=O)NO)cc32)cc1,0.986,1.08,0.723,0.855
CC#CC(=O)N1CC[C@@H](n2c(=O)n(-c3ccc(Oc4ccccc4)cc3)c3c(N)ncnc32)C1,0.731,0.919,0.869,0.819
Cc1onc(-c2ccccc2Cl)c1C(=O)N[C@@H]1C(=O)N2[C@@H]1SC(C)(C)[C@@H]2C(=O)O [Cloxacillin Sodium],0.971,1.14,0.854,1.09
CCc1c2c(nc3ccc(O)cc13)-c1cc3c(c(=O)n1C2)COC(=O)[C@]3(O)CC,0.106,0.11,0.057,0.0603
Cc1ccc(NC(=O)c2ccc(CN3CCN(C)CC3)cc2)cc1Nc1nccc(-c2cccnc2)n1 [Imatinib (STI571)],1.18,1.1,0.839,0.867
Cc1ccc(NC(=O)c2ccc(CN3CCN(C)CC3)cc2)cc1Nc1nccc(-c2cccnc2)n1 [Imatinib Mesylate (STI571)],1.08,1.12,0.599,0.612
CC(C)C(=O)Oc1ccc(CO)cc1[C@H](CCN(C(C)C)C(C)C)c1ccccc1 [Fesoterodine Fumarate],0.903,1.15,0.805,0.995
